# According to PMC8454092 (European Journal of Medicinal Chemistry, 2021):
# System: wild type EBOV
row,Substance,IC50
1,"(2R,3R,4R,5R)-2-(4-Aminopyrrolo[2,1-f][1,2,4]triazin-7-yl)-2-cyano-5-((((((R)-1-(2-ethylbutoxy)-1-oxopropan-2-yl)amino)(phenoxy)phosphoryl)oxy)methyl)-4-hydroxytetra hydrofuran-3-yl palmitate [Compound 3c]",190 nM
2,"(2R,3R,4R,5R)-2-(4-Aminopyrrolo[2,1-f][1,2,4]triazin-7-yl)-2-cyano-5-((((((R)-1-(2-ethylbutoxy)-1-oxopropan-2-yl)amino)(phenoxy)phosphoryl)oxy)methyl)tetrahydrofuran-3,4-diyl ditetradecanoate [Compound 5b]",> 5000 nM
